From the supplement of paper PMC8728848
The list shows a part of the results.

Columns and labels:
Assay in all cases: glycan array binding signal (z-score within array); higher = stronger binding
Settings in all cases: glycan notation: IUPAC condensed, linker removed
[1] = molecular target: Neu5Ac(a2-6)Gal(b1-4)GlcNAc(b1-2)Man(a1-3)[Neu5Ac(a2-3)Gal(b1-4)GlcNAc(b1-2)Man(a1-6)]Man(b1-4)GlcNAc(b1-4)GlcNAc
Summary of the method: (§1)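 Negative Z-scores can be read as non-binding. The Z-score is calculated within each array and then averaged across arrays of one protein sequence at different concentrations or buffers and across linkers. Arrays, 3228 in all, were curated from the Consortium for Functional Glycomics database and kept only where the protein sequence was available.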

[2] = molecular target: Neu5Ac(a2-6)Gal(b1-4)GlcNAc(b1-2)Man(a1-3)[Neu5Ac(a2-6)Gal(b1-4)GlcNAc(b1-2)Man(a1-6)]Man(b1-4)GlcNAc(b1-4)GlcNAc
Summary of the method: as §1

[3] = molecular target: Neu5Ac(a2-6)Gal(b1-4)GlcNAc(b1-2)Man(a1-3)[Neu5Ac(a2-6)Gal(b1-4)GlcNAc(b1-2)Man(a1-6)]Man(b1-4)GlcNAc(b1-4)[Fuc(a1-6)]GlcNAc
Summary of the method: as §1

[4] = molecular target: Neu5Ac(a2-6)Gal(b1-4)GlcNAc(b1-2)Man(a1-6)Man(b1-4)GlcNAc(b1-4)GlcNAc
Summary of the method: as §1

[5] = molecular target: Neu5Ac(a2-6)Gal(b1-4)GlcNAc(b1-2)Man(a1-6)[Gal(b1-4)GlcNAc(b1-2)Man(a1-3)]Man(b1-4)GlcNAc(b1-4)GlcNAc
Summary of the method: as §1

[6] = molecular target: Neu5Ac(a2-6)Gal(b1-4)GlcNAc(b1-2)Man(a1-6)[GlcNAc(b1-2)Man(a1-3)]Man(b1-4)GlcNAc(b1-4)GlcNAc
Summary of the method: as §1

[7] = molecular target: Neu5Ac(a2-6)Gal(b1-4)GlcNAc(b1-2)Man(a1-6)[Man(a1-3)]Man(b1-4)GlcNAc(b1-4)GlcNAc
Summary of the method: as §1

[8] = molecular target: Neu5Ac(a2-6)Gal(b1-4)GlcNAc(b1-2)[Neu5Ac(a2-6)Gal(b1-4)GlcNAc(b1-4)]Man(a1-3)[GlcNAc(b1-4)][Neu5Ac(a2-6)Gal(b1-4)GlcNAc(b1-2)[Neu5Ac(a2-6)Gal(b1-4)GlcNAc(b1-6)]Man(a1-6)]Man(b1-4)GlcNAc(b1-4)GlcNAc
Summary of the method: as §1

[9] = molecular target: Neu5Ac(a2-6)Gal(b1-4)GlcNAc(b1-2)[Neu5Ac(a2-6)Gal(b1-4)GlcNAc(b1-4)]Man(a1-3)[GlcNAc(b1-4)][Neu5Ac(a2-6)Gal(b1-4)GlcNAc(b1-4)Man(a1-6)]Man(b1-4)GlcNAc(b1-4)GlcNAc
Summary of the method: as §1

[10] = molecular target: Neu5Ac(a2-6)Gal(b1-4)GlcNAc(b1-2)[Neu5Ac(a2-6)Gal(b1-4)GlcNAc(b1-6)]Man(a1-6)[Neu5Ac(a2-6)Gal(b1-4)GlcNAc(b1-2)Man(a1-3)][GlcNAc(b1-4)]Man(b1-4)GlcNAc(b1-4)GlcNAc
Summary of the method: as §1

[11] = molecular target: Neu5Ac(a2-6)Gal(b1-4)GlcNAc(b1-3)Gal(b1-3)GlcNAc
Summary of the method: as §1

[12] = molecular target: Neu5Ac(a2-6)Gal(b1-4)GlcNAc(b1-3)Gal(b1-4)GlcNAc
Summary of the method: as §1

[13] = molecular target: Neu5Ac(a2-6)Gal(b1-4)GlcNAc(b1-3)Gal(b1-4)GlcNAc(b1-2)Man(a1-3)[Neu5Ac(a2-6)Gal(b1-4)GlcNAc(b1-3)Gal(b1-4)GlcNAc(b1-2)Man(a1-6)]GalNAc
Summary of the method: as §1

[14] = molecular target: Neu5Ac(a2-6)Gal(b1-4)GlcNAc(b1-3)Gal(b1-4)GlcNAc(b1-3)Gal(b1-4)GlcNAc
Summary of the method: as §1

[15] = molecular target: Neu5Ac(a2-6)Gal(b1-4)GlcNAc(b1-3)Gal(b1-4)GlcNAc(b1-3)Gal(b1-4)GlcNAc(b1-2)Man(a1-3)[Neu5Ac(a2-6)Gal(b1-4)GlcNAc(b1-3)Gal(b1-4)GlcNAc(b1-3)Gal(b1-4)GlcNAc(b1-2)Man(a1-6)]GalNAc
Summary of the method: as §1

[16] = molecular target: Neu5Ac(a2-6)Gal(b1-4)GlcNAc(b1-3)Gal(b1-4)GlcNAc(b1-3)GalNAc
Summary of the method: as §1

[17] = molecular target: Neu5Ac(a2-6)Gal(b1-4)GlcNAc(b1-3)Gal(b1-4)GlcNAc(b1-3)[Neu5Ac(a2-6)Gal(b1-4)GlcNAc(b1-3)Gal(b1-4)GlcNAc(b1-6)]GalNAc
Summary of the method: as §1

[18] = molecular target: Neu5Ac(a2-6)Gal(b1-4)GlcNAc(b1-3)Gal(b1-4)GlcNAc(b1-6)[Gal(b1-3)]GalNAc
Summary of the method: as §1

[19] = molecular target: Neu5Ac(a2-6)Gal(b1-4)GlcNAc(b1-3)Gal(b1-4)[Fuc(a1-3)]GlcNAc(b1-3)Gal(b1-4)[Fuc(a1-3)]GlcNAc
Summary of the method: as §1

[20] = molecular target: Neu5Ac(a2-6)Gal(b1-4)GlcNAc(b1-3)GalNAc
Summary of the method: as §1

[21] = molecular target: Neu5Ac(a2-6)Gal(b1-4)GlcNAc(b1-3)[Neu5Ac(a2-6)Gal(b1-4)GlcNAc(b1-6)]GalNAc
Summary of the method: as §1

[22] = molecular target: Neu5Ac(a2-6)Gal(b1-4)GlcNAc(b1-6)GalNAc
Summary of the method: as §1

[23] = molecular target: Neu5Ac(a2-6)Gal(b1-4)GlcNAc(b1-6)[Gal(b1-3)GlcNAc(b1-3)]Gal(b1-4)Glc
Summary of the method: as §1

[24] = molecular target: Neu5Ac(a2-6)Gal(b1-4)GlcNAc(b1-6)[Gal(b1-3)]GalNAc
Summary of the method: as §1

[25] = molecular target: Neu5Ac(a2-6)Gal(b1-4)GlcNAc6S
Summary of the method: as §1

Neu5Ac(a2-6)GalNAc = molecular target: Neu5Ac(a2-6)GalNAc
Summary of the method: as §1

[26] = molecular target: Neu5Ac(a2-6)GalNAc(b1-4)GlcNAc
Summary of the method: as §1

[27] = molecular target: Neu5Ac(a2-6)GalNAc(b1-4)GlcNAc6S
Summary of the method: as §1

[28] = molecular target: Neu5Ac(a2-6)GlcNAc(b1-4)GlcNAc
Summary of the method: as §1

[29] = molecular target: Neu5Ac(a2-6)GlcNAc(b1-4)GlcNAc(b1-4)GlcNAc
Summary of the method: as §1

B1: SP16665A-bot-344-23-344 (Bacteroides ovatus) (protein)
chain: SDNEFPDFDYQTVYFANQYGLRTIELGESEFVDNTLDNQHKMVIKAAWGGGYTNRNNVVINFKVDESLCDNLYFKDTDQPLVPMPASYYTLASDRIAIPKGQIMAGVEVQLTDDFFADEKSISENYVIPLLMTNVQGADSILQGKPVVENPVLTNAGDWSILPQNFVLYAVKYVNPWHGEYLRRGIDHATVAGTSKDIIRHEQFVENDEVVNISTKSMKDNLLTLKTKDESGKDISYTVRLSFAEDGSCTVHSGSQNVVVSGSGKFVSKGEKNSLGGKDRNAIYLDYTVNLTDNNIQLATKDTLVLRTRNVYGGKSLEVVRK
glycan array binding signal (z-score) [1]: -0.229
glycan array binding signal (z-score) [2]: -0.265
glycan array binding signal (z-score) [3]: 0.106
glycan array binding signal (z-score) [4]: -0.067
glycan array binding signal (z-score) [5]: -0.141
glycan array binding signal (z-score) [6]: -0.499
glycan array binding signal (z-score) [7]: 0.202
glycan array binding signal (z-score) [8]: 0.739
glycan array binding signal (z-score) [9]: -0.509
glycan array binding signal (z-score) [10]: -0.263
glycan array binding signal (z-score) [11]: 0.259
glycan array binding signal (z-score) [12]: -0.68
glycan array binding signal (z-score) [13]: 0.228
glycan array binding signal (z-score) [14]: -0.319
glycan array binding signal (z-score) [15]: -0.157
glycan array binding signal (z-score) [16]: -0.372
glycan array binding signal (z-score) [17]: -0.295
glycan array binding signal (z-score) [18]: -0.196
glycan array binding signal (z-score) [19]: 0.107
glycan array binding signal (z-score) [20]: -0.619
glycan array binding signal (z-score) [21]: -0.18
glycan array binding signal (z-score) [22]: -0.237
glycan array binding signal (z-score) [23]: -0.565
glycan array binding signal (z-score) [24]: -0.424
glycan array binding signal (z-score) [25]: -0.194
glycan array binding signal (z-score) (Neu5Ac(a2-6)GalNAc): -0.36
glycan array binding signal (z-score) [26]: -0.736
glycan array binding signal (z-score) [27]: -0.452
glycan array binding signal (z-score) [28]: -0.508
glycan array binding signal (z-score) [29]: -0.453
